According to publication PMC4336329 (PLoS ONE, 2015):
The campaign covered roughly 310,000 compounds. About 2,200 (0.71%) showed an effect of 50% or more. Effects have a minus sign here. The list shows a part of the results.

The molecules below were run against human ether-à-go-go-related gene (hERG) potassium channel (human, UniProt Q12809) (assay: primary screen, population patch clamp on CHO cells stably expressing hERG).
human ether-à-go-go-related gene (hERG) potassium channel, sequence (Q12809 whole entry, looked up): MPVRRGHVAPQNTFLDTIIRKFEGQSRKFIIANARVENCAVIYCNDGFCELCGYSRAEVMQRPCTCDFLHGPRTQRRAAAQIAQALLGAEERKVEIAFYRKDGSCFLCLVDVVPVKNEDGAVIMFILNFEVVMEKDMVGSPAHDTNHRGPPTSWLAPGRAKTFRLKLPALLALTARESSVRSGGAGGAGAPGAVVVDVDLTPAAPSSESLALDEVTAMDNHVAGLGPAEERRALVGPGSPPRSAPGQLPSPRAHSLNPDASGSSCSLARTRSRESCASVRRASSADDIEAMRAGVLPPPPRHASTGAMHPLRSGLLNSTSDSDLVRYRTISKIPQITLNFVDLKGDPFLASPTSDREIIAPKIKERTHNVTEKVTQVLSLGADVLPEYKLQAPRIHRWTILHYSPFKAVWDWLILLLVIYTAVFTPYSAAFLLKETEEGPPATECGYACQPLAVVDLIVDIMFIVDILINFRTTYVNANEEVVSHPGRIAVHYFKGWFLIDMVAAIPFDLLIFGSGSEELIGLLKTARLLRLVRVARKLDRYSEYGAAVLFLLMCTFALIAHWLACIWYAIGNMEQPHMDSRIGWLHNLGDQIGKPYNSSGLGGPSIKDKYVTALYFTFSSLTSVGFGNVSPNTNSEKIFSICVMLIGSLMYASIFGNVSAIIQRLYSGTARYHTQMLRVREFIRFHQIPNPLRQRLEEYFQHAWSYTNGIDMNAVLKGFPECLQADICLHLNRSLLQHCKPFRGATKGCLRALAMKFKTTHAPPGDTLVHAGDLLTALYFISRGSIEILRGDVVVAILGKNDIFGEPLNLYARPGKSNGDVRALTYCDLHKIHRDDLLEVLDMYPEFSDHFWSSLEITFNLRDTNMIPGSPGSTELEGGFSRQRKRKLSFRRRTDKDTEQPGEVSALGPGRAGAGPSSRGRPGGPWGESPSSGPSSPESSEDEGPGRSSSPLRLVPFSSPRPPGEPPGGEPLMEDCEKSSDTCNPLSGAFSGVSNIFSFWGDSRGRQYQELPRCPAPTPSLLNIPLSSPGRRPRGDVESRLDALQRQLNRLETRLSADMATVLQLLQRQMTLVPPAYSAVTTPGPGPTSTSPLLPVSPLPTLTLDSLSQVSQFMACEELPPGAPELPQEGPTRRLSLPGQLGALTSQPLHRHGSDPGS

SMILES | hERG current change (%, negative = inhibition) at 1uM [%]
Cl.Cn1c(=O)c2c(ncn2CCCC(=N)N2CCOCC2)n(C)c1=O | 15.4
Cn1c(C(=O)N[C@@H](Cc2ccccc2)C(=O)O)cc2cc(F)ccc21 | 14.7
O=c1cc(N2CCc3ccccc3C2)[nH]c(=O)n1-c1ccccc1Cl | 17.6
CCn1c(CCNC(=O)c2cccs2)nnc1SCC(=O)Nc1cccc(Cl)c1 | -21.1
COc1ccc(CCNC(=O)c2cccc(NC(=O)CC3SC(N4CCCCC4)=NC3=O)c2)cc1OC (centres unmarked) | 7.29
CCC(=O)N/C(=N/c1nc(C)cc(C)n1)Nc1ccc(OC)cc1 | 10.1
COc1ccc(C(=O)N2CCN(C)C(=O)[C@@H]2C)cc1OC1CCN(C(C)=O)CC1 | 14.6
Cc1cc(NCCCCO)n2c(nc3ccccc32)c1C#N | -5.67
CC(=O)c1cc(O)c2ccccc2c1O | 12.2
CCCN1CN(Cc2ccccc2)CNC1=S | 10.1
CC(C)(C)c1cc(C(=S)N2CCN(CCO)CC2)cc(C(C)(C)C)c1O | -3.92
CCCNC(=O)COC(=O)c1ccc(OCC(=O)Nc2ccccc2OC)c(OC)c1 | 14.4
O=C(O)c1ccc2c(=O)n3c(nc2c1)/C(=C/c1cccc(Cl)c1Cl)CC3 | 13.8
COc1ccc(C2(c3ccc(OC)cc3)NC(=O)N(CC(=O)Nc3ccccc3)C2=O)cc1 | 2.32
Cc1ccc(Nc2ncnc3sc(C)c(C)c23)cc1 | 13.1
O=C(NC1CCCC1)c1noc2c1CCCCC2 | 13.8
CCc1ccccc1NC1=NCC(=O)N1Cc1ccc(OC)cc1.Cl | 6.01
COc1ccccc1NC(=O)C(C)NS(=O)(=O)c1ccccc1 (centres unmarked) | 0.28
Cc1noc(C)c1C(=O)Nc1ccccc1C(=O)NCCc1ccccc1 | 8.16
O=C(Nc1ccc2c(c1)OCO2)c1ccc(COc2ccc3c(c2)CCC3)o1 | 7.02
C/C(=N/NC(=O)c1cnccn1)c1cccs1 | 7.15
O=C(CN1CCN(c2ccccc2)CC1)N1CCc2ccccc21 | 13.4
CC(=O)c1c(C)[nH]c(C(=O)OCC(=O)N2c3ccccc3NC(=O)C2(C)C)c1C | 4.1

SMILES | hERG current change (%, negative = inhibition) at 1uM [%]
C/C(=N\O)c1cc(Cl)cc(Cl)c1O | 11.8
Cc1ccc(C)c(OCCC(=O)OCC(=O)c2ccc3c(c2)NC(=O)CO3)c1 | 10.5
O=C(COc1ccc(Cl)cc1)Nc1nc(-c2ccc(S(=O)(=O)N3CCOCC3)cc2)cs1 | 10.4
CCOC(=O)c1ccc(N/C(=N\S(=O)(=O)c2ccc(F)cc2F)c2ccccc2)cc1 | 6.54
Nc1c(Cl)cc(Cl)cc1C(=O)OCC(=O)NC1CC1 | -0.817
Cc1cc(=O)oc2c3c(cc(OCC(=O)NC(Cc4ccc(Cl)cc4)C(=O)O)c12)OC(C)(C)CC3 (centres unmarked) | 12.2
COc1ccc(/C=N\Nc2ccccc2[N+](=O)[O-])c(C(=O)O)c1OC | -3.48
CCN(CC)C(C(=O)NC1CCCCC1)c1ccc(C)cc1 (centres unmarked) | 3.7
COc1ccc(S(=O)(=O)Cc2ccc(C(=O)N3CCN(c4cccc(C)c4C)CC3)o2)cc1 | 1.22
COCCNC(=S)N(CCO)Cc1cc2cc3c(cc2[nH]c1=O)OCCO3 | 7.15
CCOc1ccc(NC(=O)C2CCCN2C(=O)OCc2ccccc2)cc1 (centres unmarked) | 0.626
CCOC(=O)c1ccc(-n2c(C)ccc2C)cc1 | 9.07
O=C(O)/C=C/c1cn(Cc2ccccc2)nc1-c1ccc(Cl)cc1 | 13
O=C(NCCN1CCOCC1)C(=O)NCC1OCCN1S(=O)(=O)c1ccc(F)cc1 (centres unmarked) | 2.25
COc1ccc(S(=O)(=O)Nc2ccccc2SC)cc1C | 1.39
CC(C(=O)Nc1cc(C(F)(F)F)ccc1N1CCOCC1)N1C(=O)C2CC=CCC2C1=O (centres unmarked) | 7.8
CC(C)c1cc(C(=O)OCC(=O)NC(=O)NCc2ccco2)c(O)c(C(C)C)c1 | 11
Cc1nccn1CCCNC(=O)CC1C(=O)NCCN1Cc1ccccc1C(F)(F)F (centres unmarked) | 9.52
O=[N+]([O-])c1ccc(SCc2ccncc2)nc1 | 24.9
CCO.N#CC1=C(N)Oc2c(oc(CO)cc2=O)C1c1ccccc1[N+](=O)[O-] (centres unmarked) | 0.136
CN(c1ccccc1)S(=O)(=O)c1nnc(NC(=O)COc2ccccc2)s1 | 15.5
COCCn1c(SCC(=O)c2ccc3c(c2)OCCO3)nnc1C(C)C | 4.98
O=C(CN1CCC(NC(=O)Cc2ccccc2)CC1)Nc1ccccc1Br | 2.03

SMILES | hERG current change (%, negative = inhibition) at 1uM [%]
CCOC(=O)C1(CCCc2ccccc2)CCN(C2CCCC2)CC1 | -66.1
Cc1cc(C)c(NS(=O)(=O)c2ccc(Cl)c(C(=O)O)c2)c(C)c1 | 7.97
Cc1cc(C)nc(SCC(=O)NNC(=O)c2cccs2)n1 | 2.52
CCNC(=S)NCc1ccco1 | 6.83
CCOC(=O)CSC1=C(C#N)C(c2ccccc2C)C2=C(CCCC2=O)N1 (centres unmarked) | 4.84
OCCC1CN(Cc2ccc3c(c2)CCO3)CCN1C1CCCC1 (centres unmarked) | 2.48
Fc1ccc(-c2csc(Nc3ccccn3)n2)cc1 | 14
Cl.OCCN1CCN(CC(O)COCCOc2ccc(Br)cc2)CC1 (centres unmarked) | -8.42
Cc1cc(C(=O)N/N=C/c2cccc(OC(=O)c3cccc(Br)c3)c2)n[nH]1 | 12.7
CNC[C@H](CC1CCCCC1)NC[C@H](Cc1ccccc1)NCCC12CC3CC(CC(C3)C1)C2 | 16
O=C1NC(=O)C(=Cc2ccc(-c3ccccc3[N+](=O)[O-])o2)C(=O)N1 | 6.55
COc1ccc(CNC(=O)COc2ccc(OC)cc2)cc1 | 14.1
COc1ccc(C2(C)NC(=O)N(CC(=O)NC(C)c3ccc(CC(C)C)cc3)C2=O)cc1 (centres unmarked) | 13.3
COC(=O)c1ccsc1NC(=O)CN1CCN(c2ncccn2)CC1 | 10.1
O=C(NNC(=O)c1ccncc1)Nc1ccc([N+](=O)[O-])cc1 | 3.3
CCCOc1cccc(C(=O)NCCNC(=O)c2ccccn2)c1 | 11.2
O[C@@H]1CN(Cc2ccc(-n3cccn3)cc2)CC[C@H]1N1CCN(c2ccccc2F)CC1 | -39.7
Cc1ccc(C(=O)N2CCN(S(C)(=O)=O)C2)cc1 | -2
Cc1ccc(S(=O)(=O)NCCC(=O)Nc2cc(S(=O)(=O)N(C)C)ccc2C)cc1C | 14.3
CCCCOc1ccc(C(=O)NCC(=O)NCCOc2ccccc2OC)cc1 | 5.67
CCC(=O)Nc1nnc(SCC(=O)NC2CCCC2)s1 | 15.7
O=C(Nc1ccc2c(c1)CCC2)c1cccc(S(=O)(=O)Nc2ccccc2Cl)c1 | 11.9
O=C1c2ccccc2S(=O)(=O)N1Cc1cccc(S(=O)(=O)N2CCOCC2)c1 | 12.2

SMILES | hERG current change (%, negative = inhibition) at 1uM [%]
CCOC(=O)c1ccc2c(c1)N(CC)C(=O)c1ccccc1S2 | 9.82
COc1ccc(-c2cn(-c3ccc(C)cc3)c(=O)n2CC(=O)Nc2ccc(OC)c(OC)c2)cc1 | 7.81
Oc1csc(Cc2nc(-c3ccc(-c4ccccc4)cc3)cs2)n1 | 11.1
N#Cc1c(Cl)nsc1NC(=O)c1ccccc1 | 5.52
COc1ccc(CCNC(=O)C(=O)NCC2OCCN2S(=O)(=O)c2ccc(Br)cc2)cc1OC (centres unmarked) | 9.31
O=C(CCc1ccccc1)N=C1SC2CS(=O)(=O)CC2N1c1ccccc1F (centres unmarked) | 18.4
CCOc1ccccc1NC(=O)CN1C(=O)COc2ccc(C)cc21 | 15.1
COCC(=O)Nc1ccc(N(C)C)cc1 | 12.1
O=C(CC1C(=O)NCCN1Cc1ccoc1)NCc1cccc(OC(F)(F)F)c1 (centres unmarked) | 5.68
COC(=O)c1sccc1NC(=S)N(C)C1CCCCC1 | 4.75
O=S(=O)([O-])c1cc(O)ccc1O.[K+] | 11.3
CCCCn1cnc2c(sc3nc4c(cc32)CSC(C)(C)C4)c1=O | 18.7
Cc1ccc(NC(=O)CN2CCC(C(N)=O)CC2)cc1[N+](=O)[O-] | -5.78
Cc1ccsc1-c1nc(CN2CCN(C)C(=O)[C@@H]2C)c(C)o1 | -7.78
CCC(C)[C@H](N)c1nnc(SCC(=O)Nc2cccc(Cl)c2)o1.Cl (some centres unmarked) | -2.51
CCN(CC)c1ccc(NC(=O)CN2CCN(c3nc(C)cc(C)n3)CC2)cc1 | 8.96
COc1ccc(CCc2cc(OC)cc(=O)o2)cc1 | 9.87
O=C(c1ccc(Cl)c(Cl)c1)N1CCC(=O)N(C(COCc2ccccc2)Cc2ccccc2)CC1 (centres unmarked) | -11.6
O=C(COc1ccc([N+](=O)[O-])cc1)NC(C(=O)O)C(O)c1cccc([N+](=O)[O-])c1 (centres unmarked) | 12.6
COc1ccc(S(=O)(=O)Nc2c(C(=O)O)[nH]c3ccc(OC)cc23)c(OC)c1 | 28
